# According to PubChem BioAssay AID995 (National Center for Advancing Translational Sciences (NCATS), 2007):
# In all, about 72,000 compounds went through this assay and about 710 (0.99%) were called active. Inconclusive results, whose numbers are uncertain, are shown with a selection of clear calls. Calls follow the shape of the dose curve; as a rule, active = well fitted inhibition curve with a large enough effect; inconclusive = small, poorly fitted or top-dose-only effect; inactive = no such curve, though single readings can be large or run the other way. No potency is given beside an inconclusive call; the fits are too rough.
# Assay: qHTS Assay for Inhibitors of the ERK Signaling Pathway using a Homogeneous Screening Assay; also: nearly all actives have a fitted effect of over 55% in size
# Conditions: HEK293-V1b, vasopressin-stimulated pERK AlphaScreen; activity, negative = inhibition: at 57.5 µM (top of the series) unless noted
# Outline: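 qHTS, compounds titrated on V1b-expressing HEK293 cells. Preincubation 30 min at 37C, vasopressin 25 nM for 5 min, lysis 10 min, bead incubation 5 hr at room temperature.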
# % is scaled to controls: 0 for no effect and ±100 for the full control effect; potency is read from the fitted curve at half-maximal effect; tags tell the direction and shape of the fitted curve.
SMILES,"activity, negative = inhibition",Potency
CCn1cc(C(=O)N2CCN(C(=O)c3ccco3)CC2)c2cc(OC)c(OC)cc2c1=O,inactive: 2.98%,
CCC(C)NC(=O)CS(=O)Cc1nc(-c2cccc(OC)c2)oc1C (centres undefined),,"inconclusive [inhibitor, single point]"
COc1ccccc1-c1cc(NCc2cccc(C)c2)ncn1,,"inconclusive [inhibitor, partial curve]"
Cc1cccc(C)c1N1CCN(S(=O)(=O)c2ccc(F)cc2)CC1,inactive: 57.2%,
C=C(C)COc1ccc(-c2[nH]ncc2-c2ccc(OC)c(OC)c2)c(O)c1,,"inconclusive [inhibitor, single point]"
CCc1cc2c(c(CC)n1)CCC(=O)N2Cc1ccc(-c2ccccc2-c2nn[nH]n2)cc1,,"inconclusive [inhibitor, partial curve, poor fit]"
CCOc1cc(S(=O)(=O)NCc2cccs2)ccc1Cl,,"inconclusive [inhibitor, partial curve]"
C=CCn1c(=O)c2c3c(sc2n2c(Nc4ccc(OC)cc4)nnc12)CCCC3,,"inconclusive [inhibitor, partial curve]"
CC(C)(CO)Cc1cc(C(C)(C)C)c(O)c(C(C)(C)C)c1,,"inconclusive [inhibitor, single point]"
CC(C)c1ccc(-c2nc(N3CCOCC3)[nH]c(=O)c2C#N)cc1,,"inconclusive [inhibitor, partial curve]"
COCCn1c(=N)c(C(=O)NCCc2ccccc2)cc2c(=O)n3cccc(C)c3nc21,inactive: -9.24%,
COc1cc2ccccc2cc1C(=O)Nc1ccc(N2CCN(C)CC2)cc1,,"inconclusive [inhibitor, single point]"
COCCOC(=O)C1=C(C)NC2=C(C(=O)CC(C)(C)C2)C1c1cc2c(cc1Br)OCO2 (centres undefined),inactive: 66.8%,
COc1ccccc1C(=O)Nc1ccc(N2CCN(Cc3ccccc3)CC2)cc1,,"inconclusive [inhibitor, single point]"
COc1ccc(Cl)cc1-n1c(C)cc(C(=O)O)c1C,,"inconclusive [inhibitor, partial curve]"
CCN(CC)CCn1c(=S)[nH]c2ccccc2c1=O,inactive: 4.42%,
CCc1cc2cc(C(=O)N3CCN(Cc4ccccc4)CC3)sc2s1,,"inconclusive [inhibitor, single point]"
Cc1cc(C)n(-c2nnc(C)n2/N=C/c2ccccc2OCc2ccccc2Cl)n1,,"inconclusive [inhibitor, single point]"
CC1(C)CC(=O)c2cnc(NCC3CCCO3)nc2C1 (centres undefined),,"inconclusive [inhibitor, partial curve]"
